# Laboratory results published in PubChem BioAssay (Tox21).
# “And” between values parts separate entries of the source, which are not always exact repeats. Equal entries are not always repeated. The shares of active, inactive and inconclusive entries below differ from those in the screen. For some of these results: Potencies beside an inconclusive call are fits to weak or partial responses and may not hold up. The source made the active and inactive calls. Unless noted, calls follow the shape of the dose curve; as a rule, active = well fitted curve in the direction sought with a large enough effect in the repeat runs; inconclusive = weak or mixed curves; inactive = no such curve, though single readings can be large; an effect the other way counts as inactive or inconclusive.
# Columns and labels:
# [1] = qHTS assay for identifying genotoxic compounds that show differential cytotoxicity against isogenic chicken DT40 cell lines with known DNA damage response pathways - Rev3 mutant cell line (AID 743014); conditions: chicken DT40 Rev3-/- viability, CellTiter-Glo, 40 h; activity, negative = cytotoxicity: at 68.4 µM (top of the series); also: nearly all actives have a fitted effect of over 55% in size; also: potency is read from the fitted curve at half-maximal effect
# [2] = qHTS assay to identify small molecule antagonists of the thyroid receptor (TR) signaling pathway - cell viability counter screen (AID 743064); conditions: GH3.TRE-Luc viability, CellTiter-Fluor, 24 h; activity change, negative = cytotoxic: at 70.3 µM (top of the series) unless noted; also: potency is read from the fitted curve at half-maximal effect; nearly all actives have a fitted effect of over 50% in size
# Method in brief: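 CellTiter-Fluor readout, 30 min at 37 °C/5% CO2, following 23.5 h incubation of GH3.TRE-Luc cells with test compound and 1 nM T3 (final).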
# [3] = target: Estrogen receptor (Homo sapiens) (UniProt P03372); assay: qHTS assay to identify small molecule agonists of the estrogen receptor alpha (ER-alpha) signaling pathway using the BG1 cell line (AID 743079); conditions: BG1Luc4E2 cells, ERE-luciferase agonist, 22 h; activation: at 70.3 µM (top of the series) unless noted; also: nearly all actives have a fitted effect of over 20% in size; also: potency is read from the fitted curve at half-maximal effect; as to activation: % is scaled to controls: 0 for no effect and ±100 for the full control effect
# Sequence of UniProt P03372 (P03372 whole entry, looked up): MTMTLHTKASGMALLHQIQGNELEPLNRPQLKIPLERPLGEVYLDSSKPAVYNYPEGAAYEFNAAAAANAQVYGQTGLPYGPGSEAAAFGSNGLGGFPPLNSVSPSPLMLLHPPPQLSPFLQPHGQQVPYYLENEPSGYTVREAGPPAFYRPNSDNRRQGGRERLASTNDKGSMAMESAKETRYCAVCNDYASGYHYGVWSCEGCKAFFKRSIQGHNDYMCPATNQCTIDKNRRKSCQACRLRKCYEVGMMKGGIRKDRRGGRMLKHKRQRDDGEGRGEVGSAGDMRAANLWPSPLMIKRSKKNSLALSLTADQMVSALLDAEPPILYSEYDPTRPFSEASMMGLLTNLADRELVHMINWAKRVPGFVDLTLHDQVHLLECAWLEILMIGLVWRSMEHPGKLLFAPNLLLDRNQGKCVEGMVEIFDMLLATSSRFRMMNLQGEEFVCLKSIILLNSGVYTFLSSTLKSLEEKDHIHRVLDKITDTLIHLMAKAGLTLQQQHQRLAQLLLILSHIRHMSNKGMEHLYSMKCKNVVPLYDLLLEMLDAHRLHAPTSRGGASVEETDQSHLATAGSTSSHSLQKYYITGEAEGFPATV
# [4] = qHTS assay to identify small molecule antagonists of the estrogen receptor alpha (ER-alpha) signaling pathway using the BG1 cell line - cell viability counter screen (AID 743081); conditions: BG1Luc4E2 viability, CellTiter-Fluor, 22 h; activity change, negative = cytotoxicity: at 70.3 µM (top of the series) unless noted;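 also: compound given together with 17beta-estradiol as the ER stimulus; nearly all actives have a fitted effect of over 45% in size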; also: potency is read from the fitted curve at half-maximal effect; as to activity change, negative = cytotoxicity: % is scaled to controls: 0 for no effect and ±100 for the full control effect
# Aromatase (Homo sapiens) = Aromatase (Homo sapiens) (UniProt P11511); assay: qHTS assay to identify aromatase inhibitors (AID 743083); conditions: MCF-7 aro ERE, testosterone-driven ERE luciferase, 24 h; activity, negative = inhibition: at 70.3 µM (top of the series); also: potency is read from the fitted curve at half-maximal effect; nearly all actives have a fitted effect of over 55% in size
# Sequence of UniProt P11511 (P11511 whole entry, looked up): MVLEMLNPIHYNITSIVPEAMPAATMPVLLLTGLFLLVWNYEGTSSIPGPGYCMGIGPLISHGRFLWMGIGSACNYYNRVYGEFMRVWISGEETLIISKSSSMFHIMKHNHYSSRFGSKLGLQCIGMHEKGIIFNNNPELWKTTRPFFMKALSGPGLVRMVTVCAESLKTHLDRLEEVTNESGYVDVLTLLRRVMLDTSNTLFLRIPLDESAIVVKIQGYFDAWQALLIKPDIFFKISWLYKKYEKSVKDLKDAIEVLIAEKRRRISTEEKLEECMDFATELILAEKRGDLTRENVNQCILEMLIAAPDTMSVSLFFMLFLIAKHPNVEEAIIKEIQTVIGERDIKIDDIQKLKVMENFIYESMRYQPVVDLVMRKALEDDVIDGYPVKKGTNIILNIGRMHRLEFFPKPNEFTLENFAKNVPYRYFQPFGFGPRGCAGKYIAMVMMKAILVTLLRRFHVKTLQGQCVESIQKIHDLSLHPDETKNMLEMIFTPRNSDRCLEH
# [5] = target: Androgen receptor (Homo sapiens) (UniProt P10275); assay: qHTS assay to identify small molecule antagonists of the androgen receptor (AR) signaling pathway (AID 743035; active = well fitted inhibition curve with a large enough effect in the signal ratio in the repeat runs, not every such curve was filed as active; inconclusive = weak or mixed curves, or effect the other way; inactive = no such curve, though single readings can be large or run the other way; the % refers to the signal ratio; also: % is scaled to controls: 0 for no effect and ±100 for the full control effect); conditions: HEK293 AR-UAS-bla, R1881-stimulated, beta-lactamase FRET, 16 h; activity change, negative = inhibition: at 58.5 µM (top of the series) unless noted
# Sequence of UniProt P10275 (P10275 whole entry, looked up): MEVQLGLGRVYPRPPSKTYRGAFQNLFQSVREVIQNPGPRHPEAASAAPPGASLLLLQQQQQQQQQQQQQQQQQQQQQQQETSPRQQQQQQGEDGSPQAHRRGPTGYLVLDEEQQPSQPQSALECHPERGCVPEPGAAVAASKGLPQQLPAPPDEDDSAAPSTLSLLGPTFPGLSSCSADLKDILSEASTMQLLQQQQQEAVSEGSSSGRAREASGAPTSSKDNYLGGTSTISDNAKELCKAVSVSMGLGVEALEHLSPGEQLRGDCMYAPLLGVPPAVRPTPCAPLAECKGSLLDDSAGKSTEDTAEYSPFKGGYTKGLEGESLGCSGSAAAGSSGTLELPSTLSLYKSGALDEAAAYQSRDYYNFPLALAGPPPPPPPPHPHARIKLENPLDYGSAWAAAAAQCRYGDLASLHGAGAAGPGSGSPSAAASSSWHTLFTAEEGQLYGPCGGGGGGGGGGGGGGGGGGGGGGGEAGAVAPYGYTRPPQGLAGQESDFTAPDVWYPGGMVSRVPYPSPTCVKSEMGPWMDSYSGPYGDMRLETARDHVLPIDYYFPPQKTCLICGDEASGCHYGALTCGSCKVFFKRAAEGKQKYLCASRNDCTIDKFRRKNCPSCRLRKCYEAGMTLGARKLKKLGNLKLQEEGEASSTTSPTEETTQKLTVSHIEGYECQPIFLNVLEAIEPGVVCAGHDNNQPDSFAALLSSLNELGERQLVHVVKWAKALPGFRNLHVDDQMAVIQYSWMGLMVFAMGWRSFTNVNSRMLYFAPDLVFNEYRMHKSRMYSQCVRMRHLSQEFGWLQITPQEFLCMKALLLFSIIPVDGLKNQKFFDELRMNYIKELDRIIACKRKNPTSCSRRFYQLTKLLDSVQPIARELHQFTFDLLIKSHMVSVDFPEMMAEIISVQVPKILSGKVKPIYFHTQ
# Method in brief: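 Steps: seed AR-UAS-bla GripTite HEK293 cells, incubate 4 h at 37C; pin in test compound, then add agonist R1881; incubate 16 h at 37C; add LiveBLAzer B/G FRET substrate, 2 h at room temperature; read fluorescence.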
# [6] = target: Androgen receptor (Homo sapiens) (UniProt P10275); assay: qHTS assay to identify small molecule agonists of the androgen receptor (AR) signaling pathway (AID 743036; active = well fitted activation curve with a large enough effect in the signal ratio in the repeat runs, with a control signal flat, not every such curve was filed as active; inconclusive = weak or mixed curves, or effect the other way; inactive = no such curve, though single readings can be large or run the other way; the % refers to the signal ratio; also: % is scaled to controls: 0 for no effect and ±100 for the full control effect); conditions: HEK293 AR-UAS-bla GripTite, beta-lactamase FRET ratio, 16 h; activation: at 62.4 µM (top of the series) unless noted
# Method in brief: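 Following a 4 h settling period, AR-UAS-bla HEK293 cells were dosed with compounds for 16 h at 37C. A 2 h room-temperature incubation with LiveBLAzer B/G FRET substrate preceded the fluorescence measurement.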
# [7] = qHTS assay to identify small molecule antagonists of the estrogen receptor alpha (ER-alpha) signaling pathway - cell viability counter screen (AID 743074; calls by dose curve;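 also: HEK293 cells carrying ER-alpha-UAS-bla reporter stimulated with 17beta-estradiol; nearly all actives have a fitted effect of over 45% in size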; also: potency is read from the fitted curve at half-maximal effect)
# [8] = qHTS assay to identify small molecule antagonists of the androgen receptor (AR) signaling pathway - cell viability counter screen (AID 743033; also: potency is read from the fitted curve at half-maximal effect; nearly all actives have a fitted effect of over 45% in size); conditions: AR-bla HEK293 viability, CellTiter-Glo luminescence, 16 h; activity change, negative = cytotoxicity: at 58.5 µM (top of the series) unless noted
# [9] = qHTS assay to identify small molecule antagonists of the androgen receptor (AR) signaling pathway using the MDA cell line - cell viability counter screen (AID 743041; also: nearly all actives have a fitted effect of over 45% in size; also: potency is read from the fitted curve at half-maximal effect); conditions: MDA-kb2 viability, CellTiter-Fluor, 16 h, cells co-treated with R1881 androgen agonist; viability change, negative = cytotoxic: at 70.3 µM (top of the series) unless noted
# Method in brief: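 Cytotoxicity counter screen: MDA-kb2 AR-luc cells, compound + R1881, 16 h, 37C, 0% CO2; CellTiter-Fluor added at 15.5 h, fluorescence read after 30 min.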
# [10] = tested on: thyroid hormone receptor (rat, GH3 cells); assay: qHTS assay to identify small molecule agonists of the thyroid receptor (TR) signaling pathway (AID 743066; calls by dose curve; also: potency is read from the fitted curve at half-maximal effect); conditions: GH3.TRE-Luc cells, TR agonist luciferase, 24 h; activation: at 83.9 µM (top of the series) unless noted
# [11] = target: Estrogen receptor (Homo sapiens) (UniProt P03372); assay: qHTS assay to identify small molecule antagonists of the estrogen receptor alpha (ER-alpha) signaling pathway (AID 743069; active = well fitted curve in the direction sought with a large enough effect in the signal ratio in the repeat runs, not every such curve was filed as active; inconclusive = weak or mixed curves, or effect the other way; inactive = no such curve, though single readings can be large or run the other way; the % refers to the signal ratio; also: potency is read from the fitted curve at half-maximal effect); conditions: HEK293 ER-alpha-UAS-bla, beta-lactamase ratio, antagonist mode; activity, negative = inhibition: at 69.4 µM (top of the series) unless noted
# Method in brief: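 Beta-lactamase FRET fluorescence is read after 2 hr at room temperature with LiveBLAzer B/G substrate. Before that, ER-alpha-bla HEK293 cells sit 4 hr after plating, then receive compound plus 17beta-estradiol and incubate 18 hr at 37C.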
# [12] = qHTS assay to identify small molecule antagonists of the estrogen receptor alpha (ER-alpha) signaling pathway using the BG1 cell line (AID 743080; calls by dose curve;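 also: BG1 cells stimulated with 17beta-estradiol alongside compound; potency is read from the fitted curve at half-maximal effect; nearly all actives have a fitted effect of over 25% in size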); conditions: BG1Luc4E2 ERE-luciferase antagonist mode, luminescence; activity change, negative = inhibition: at 70.3 µM (top of the series) unless noted
# Method in brief: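 Luciferase inhibition measured with ONE-Glo after 30 min at RT in BG1Luc4E2 cells given test compounds and 17beta-estradiol for 21.5 h at 37 C; CellTiter-Fluor viability read in the same wells beforehand.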
# [13] = qHTS assay to identify small molecule antagonists of the thyroid receptor (TR) signaling pathway (AID 743065); also: potency is read from the fitted curve at half-maximal effect; nearly all actives have a fitted effect of over 55% in size
# Method in brief: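 GH3.TRE-Luc rat pituitary cells (two TREs driving luciferase) were dosed with compound, then stimulated with 1 nM T3 (final) for 23.5 h at 37 C. ONE-Glo luminescence was the read-out, with CellTiter-Fluor fluorescence as the cytotoxicity counter-screen.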
# [14] = qHTS assay for identifying genotoxic compounds that show differential cytotoxicity against isogenic chicken DT40 cell lines with known DNA damage response pathways - Rad54/Ku70 mutant cell line (AID 743015); conditions: DT40 Rad54/Ku70 mutant viability, CellTiter-Glo, 40 h; activity change, negative = cytotoxicity: at 66.8 µM (top of the series); also: potency is read from the fitted curve at half-maximal effect; nearly all actives have a fitted effect of over 60% in size
# [15] = target: Estrogen receptor (Homo sapiens) (UniProt P03372); assay: qHTS assay to identify small molecule agonists of the estrogen receptor alpha (ER-alpha) signaling pathway (AID 743075; calls by dose curve;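 also: HEK293 GripTite cells with ER-alpha and UAS-driven beta-lactamase reporter; potency is read from the fitted curve at half-maximal effect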)
# Tags tell the direction and shape of the fitted curve or compound fluorescence and quenching.
smiles,measurement,setting,value
CN1C[C@H]2c3ccccc3Oc3ccc(Cl)cc3[C@@H]2C1,Potency,[1],inconclusive: 29.8 µM [cytotoxic]
same,Potency,[2],active: 15 µM
same,Potency,[3],inactive
same,Potency,[4],inactive
same,Potency,Aromatase (Homo sapiens),"inconclusive: 6.68 µM [inhibitor, partial curve, poor fit]"
O=NN(CCCl)C(=O)NCCCl,Potency,[1],inactive
same,"activity change, negative = inhibition",[5],inconclusive: 11.6%
same,Potency,[6],inactive
same,Potency,[7],inactive
same,Potency,[4],inactive
CNCc1cc(F)ccc1Oc1ccc(Cl)c(Cl)c1,Potency,[1],"inconclusive: 19.3 µM [cytotoxic, full curve, poor fit]"
same,Potency,[8],"inconclusive: 38.9 µM [cytotoxic, partial curve]"
same,Potency,[9],"inconclusive: 68.6 µM [cytotoxic, single point]"
same,Potency,[10],"inconclusive: 38.6 µM [inhibitor, partial curve, poor fit]"
same,"activity, negative = inhibition",[11],inconclusive: 32.9%
same,activation,[3],inconclusive: -10.9% [phenotype inactive]
same,Potency,[12],inconclusive: 68.6 µM
same,Potency,[4],inactive
same,Potency,Aromatase (Homo sapiens),"inconclusive: 48.6 µM [inhibitor, partial curve]"
COCCCC/C(=N\OCCN)c1ccc(C(F)(F)F)cc1,Potency,[1],active: 9.44 µM
same,Potency,[8],"inconclusive: 19 µM [cytotoxic, partial curve, poor fit]"
same,Potency,[13],active: 11.9 µM
same,activation,[10],inconclusive: -8.8% [phenotype inactive]
same,Potency,[7],"inconclusive: 23.9 µM [cytotoxic, partial curve, poor fit]"
CC(C)Nc1ccc(NC(C)C)c2c1C(=O)c1ccccc1C2=O,Potency,[1],"inconclusive: 16 µM [cytotoxic, full curve, poor fit]"
same,Potency,[9],inactive
same,Potency,[12],"inconclusive: 35.8 µM [falling, single point]"
C[C@@H]1CC[C@H]2C(C)(C)[C@H]3C[C@@]12CC[C@@]3(C)O,Potency,[1],inactive
same,Potency,[2],"inconclusive: 68.5 µM [cytotoxic, single point]"
same,Potency,[13],active: 54.4 µM
same,Potency,[10],inactive
same,Potency,[11],inactive
COc1ccc(Br)c(C)c1,Potency,[1],inactive
same,Potency,[2],"inconclusive: 27.6 µM [rising, partial curve]"
same,Potency,[10],inactive
CC1(C)OC[C@@H]2O[C@@]3(C(=O)O)OC(C)(C)O[C@H]3[C@@H]2O1,Potency,[1],"inconclusive: 68.6 µM [cytotoxic, partial curve, poor fit]"
same,Potency,[10],"inconclusive: 68.6 µM [activator, partial curve, poor fit]"
Cc1cc(C)cc(OCC2CNC(=O)O2)c1 (configuration not stated),Potency,[1],"inconclusive: 33.5 µM [rising, partial curve, poor fit]"
same,Potency,[10],inactive
Cc1nc(C)nc(N2C[C@@H](C)N(c3ccnc([C@@H](C)O)n3)[C@@H](C)C2)n1,Potency,[1],"inconclusive: 9.44 µM [cytotoxic, partial curve, poor fit]"
same,Potency,[14],"inconclusive: 29.8 µM [cytotoxic, partial curve, poor fit]"
same,Potency,[7],inactive
Oc1ccc(Cl)cc1Sc1cc(Cl)ccc1O,Potency,[1],active: 11.9 µM and active: 19.3 µM
same,Potency,[9],active: 29.8 µM and active: 61 µM
same,Potency,[2],active: 11.9 µM and active: 7.68 µM
same,activation,[10],inconclusive: -8.81% [phenotype inactive]
same,Potency,[11],"inconclusive: 10.7 µM [rising, full curve] and inconclusive: 4.89 µM [rising, full curve]"
same,Potency,[7],active: 19 µM and active: 38.8 µM
same,Potency,[15],"inconclusive: 48.9 µM [falling, partial curve]"
same,Potency,[3],"inconclusive: 33.5 µM [inhibitor, single point] and inconclusive: 27.3 µM [inhibitor, full curve]"
same,Potency,[4],"inconclusive: 54.4 µM [cytotoxic, partial curve]"
CCCCC(CC)COP(=O)(OCC(CC)CCCC)OCC(CC)CCCC (configuration not stated),Potency,[1],"inactive and inconclusive: 54.5 µM [cytotoxic, partial curve]"
same,Potency,[2],"inconclusive: 0.55 µM [rising, partial curve]"
same,Potency,[7],"inconclusive: 9.77 µM [rising, full curve, poor fit]"
same,Potency,[4],inactive
OCC(CO)(CO)COCC(CO)(CO)CO,Potency,[1],inactive
same,Potency,[11],inactive
same,Potency,[4],inactive
O=C(O)Cc1cccc2ccccc12,Potency,[1],inconclusive: 61.1 µM [cytotoxic]
same,Potency,[7],"inconclusive: 0.389 µM [rising, full curve, poor fit]"
same,Potency,[4],"inconclusive: 2.43 µM [rising, full curve, poor fit]"
ClC1=C(Cl)C1(Cl)Cl,Potency,[1],inactive
same,Potency,[7],inactive
O=C1[C@@H]2[C@H]3CC[C@H](C3)[C@@H]2C(=O)N1CCCCN1CCN(c2ncccn2)CC1,Potency,[14],"inconclusive: 29.8 µM [cytotoxic, partial curve, poor fit]"
CCCCC/C=C\C/C=C\CCCCCCCC(=O)NC(C)c1ccccc1 (configuration not stated),Potency,[1],inactive
same,Potency,[11],"inconclusive: 8.49 µM [inhibitor, full curve]"
same,Potency,Aromatase (Homo sapiens),"inconclusive: 33.5 µM [inhibitor, partial curve, poor fit]"
